The record followed here is paper PMC4336329 (PLoS ONE, 2015).

The campaign covered roughly 310,000 compounds. About 2,200 (0.71%) showed an effect of 50% or more. Effects have a minus sign here. This is one part of the list. Where a SMILES comes first, the peptide text is derived from it. [ ]: non-standard residue; d: D form. The star is where a group is joined. Phg = N[CH](C(=O)O)c1ccccc1; Cbz = O=C(OCc1ccccc1)*

Sequence of human ether-à-go-go-related gene (hERG) potassium channel (Q12809 whole entry, looked up): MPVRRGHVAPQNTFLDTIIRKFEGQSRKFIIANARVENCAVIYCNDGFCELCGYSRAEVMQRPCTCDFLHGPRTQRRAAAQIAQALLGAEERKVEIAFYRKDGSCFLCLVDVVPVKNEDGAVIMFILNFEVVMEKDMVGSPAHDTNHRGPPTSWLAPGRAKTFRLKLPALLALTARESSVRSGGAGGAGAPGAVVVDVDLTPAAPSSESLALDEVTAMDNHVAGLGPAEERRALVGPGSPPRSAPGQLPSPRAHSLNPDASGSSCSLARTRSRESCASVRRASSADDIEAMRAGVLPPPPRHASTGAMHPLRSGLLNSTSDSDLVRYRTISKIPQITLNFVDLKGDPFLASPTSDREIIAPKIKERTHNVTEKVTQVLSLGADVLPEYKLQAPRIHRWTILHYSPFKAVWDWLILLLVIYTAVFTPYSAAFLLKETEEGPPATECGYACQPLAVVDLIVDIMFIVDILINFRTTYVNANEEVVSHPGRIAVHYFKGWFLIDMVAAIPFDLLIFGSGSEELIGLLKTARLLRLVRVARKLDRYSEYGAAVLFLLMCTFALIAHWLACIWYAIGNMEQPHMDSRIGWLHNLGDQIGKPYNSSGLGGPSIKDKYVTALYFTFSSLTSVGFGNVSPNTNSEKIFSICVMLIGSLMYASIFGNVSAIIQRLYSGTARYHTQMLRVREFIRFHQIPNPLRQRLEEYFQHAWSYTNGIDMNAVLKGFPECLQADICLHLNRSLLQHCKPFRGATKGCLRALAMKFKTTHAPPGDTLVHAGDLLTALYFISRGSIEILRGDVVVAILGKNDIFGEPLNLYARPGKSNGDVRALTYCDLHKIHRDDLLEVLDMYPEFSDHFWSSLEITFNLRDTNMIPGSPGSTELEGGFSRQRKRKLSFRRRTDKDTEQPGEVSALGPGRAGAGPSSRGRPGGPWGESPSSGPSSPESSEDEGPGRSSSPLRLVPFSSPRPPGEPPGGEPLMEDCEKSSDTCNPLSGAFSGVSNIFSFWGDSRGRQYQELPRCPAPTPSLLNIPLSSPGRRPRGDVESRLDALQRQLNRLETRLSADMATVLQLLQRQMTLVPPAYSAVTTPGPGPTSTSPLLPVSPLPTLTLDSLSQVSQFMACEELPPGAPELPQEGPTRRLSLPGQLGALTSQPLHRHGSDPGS

This experiment concerns the target human ether-à-go-go-related gene (hERG) potassium channel (human, UniProt Q12809). The experiment in a line: primary screen, population patch clamp on CHO cells stably expressing hERG.
In the case of `OCCC1CN(CCCc2ccccc2)CCN1CCc1ccccc1` (centres unmarked), the “hERG current change (%, negative = inhibition) at 1uM” value is listed as -32.3%. To `CC(C)CN(C(=O)CSc1nncn1-c1ccccc1)c1c(N)n(CC(C)C)c(=O)[nH]c1=O` belongs 9.44%; to `Cc1cccc2cc(C#N)c(SCC(=O)N3CCC(C)CC3)nc12`, -1.44%; to `O=C(NC(=S)N1CCN(c2ccc(Cl)cc2[N+](=O)[O-])CC1)c1ccco1`, -33.1%. To `O=C(COC(=O)C1CCN(C(=O)Nc2ccccc2)CC1)NCC(F)(F)F` belongs 19.8%; to `O=c1cc(-c2ccc(O)c(-c3c(O)cc(O)c4c(=O)cc(-c5ccc(O)cc5)oc34)c2)oc2cc(O)cc(O)c12`, -3.17%; to `CCOc1ccccc1N1CCN(Cc2ccco2)CC1`, -2.6%. In the case of `COC(=O)C1=CN(Cc2ccc(C)cc2)C=C(C(=O)OC)C1c1ccc(F)c(F)c1`, the “hERG current change (%, negative = inhibition) at 1uM” value worked out at 9.17%. For `Cc1cc(C)cc(N(C(=O)CNC(=O)c2ccco2)C(C(=O)NC2CCCCC2)c2cccnc2)c1` (centres unmarked), the “hERG current change (%, negative = inhibition) at 1uM” value is recorded as 17.8%.

Take `CCN(CC(=O)Nc1c(F)cccc1F)C(=O)Cc1csc(-c2ccccc2)n1`: the “hERG current change (%, negative = inhibition) at 1uM” value is on record as 1.91%. In the case of `Fc1ccc(-[n+]2nc(Nc3ccccc3)sc2-c2cccc(Cl)c2Cl)cc1.[Cl-]`, the “hERG current change (%, negative = inhibition) at 1uM” value came to 6.23%. As to `CC1CCCCC1NC(=O)c1cccc(NC2=NC3CS(=O)(=O)CC3S2)c1` (centres unmarked), the “hERG current change (%, negative = inhibition) at 1uM” value is 2.53%. The value for `C/C(=N\O)C(C)(C)Nc1ccc(Cl)cc1` was 10.9%; that for `COc1cc(NC(=O)COC(=O)CO/N=C(\C)c2ccc3c(c2)OCO3)cc(OC)c1OC` was 21%; that for `Cc1sc2nc(CN3CCOCC3)[nH]c(=O)c2c1-c1ccccc1` was 7.06%. Turning to `O=C(COc1ccccc1Cl)Nc1nnc(S(=O)(=O)N2CCCCCC2)s1`, the “hERG current change (%, negative = inhibition) at 1uM” value worked out at 9.78%. As for `CCOC(=O)COn1c(=O)c(-c2ccc(F)cc2)[n+]([O-])c2ccccc21`, the “hERG current change (%, negative = inhibition) at 1uM” value was determined as 7.95%. The value for `CCOc1ccccc1NC(=S)Nn1cnnc1` was 13.6%; that for `Cc1c(C(=O)OCc2ccccc2)nnn1-c1nonc1N` was 6.92%; that for `COc1ccc(/C=N/NC(=O)c2cc(-c3ccccc3)nc3ccccc23)c(C(=O)O)c1OC` was 13.2%. To `O=C(Cc1ccccc1)N1CCN=C1SCc1cccc([N+](=O)[O-])c1` belongs 7.52%; to `COc1ccc(CNC(=O)NCCc2c[nH]c3ccccc23)cc1`, 13.3%; to `Nc1ccccc1SSc1ccccc1N`, 18%. `COC(=O)C(Cc1ccc(O)cc1)NC(=O)C(C)NC(=O)c1ccc(C(C)(C)C)cc1` (centres unmarked): the “hERG current change (%, negative = inhibition) at 1uM” value came out at 5.84%. To `COc1ccc(CNC(=O)CN2C(=O)COc3ccc(S(=O)(=O)N4CCC(C)CC4)cc32)cc1` belongs 21.1%. The value for `Cc1nc(SCC(=O)NC(=O)NC2CCCCC2)nc(C)c1C` was 10.8%; that for `COCCNC(=S)NN=C1CCCCC1` was 5.44%.

With `Nc1ccc(Oc2ncccn2)cc1`, the “hERG current change (%, negative = inhibition) at 1uM” value was 15.4%. To `O=C(CCCN1C(=O)S/C(=C\C=C\c2ccccc2)C1=O)Nc1ccc(O)cc1` belongs 11%.

For `O=C(c1ccco1)N1CCN(C(=O)C2CC(=O)N(c3ccc(Cl)cc3)C2)CC1` (centres unmarked), the “hERG current change (%, negative = inhibition) at 1uM” value is -80.2%.

Take `O=C(Nc1cccnc1)c1ccccc1-c1nc(-c2ccccc2F)no1`: the “hERG current change (%, negative = inhibition) at 1uM” value was -10.3%. The value for `O=C(COC(=O)c1cncc(Br)c1)Nc1ccc2c(c1)OCO2` was 2.92%; that for `O=C1C(=O)N(CNc2cccnc2)c2ccccc21` was 11.9%; that for `O=C(O)C(NC(=O)C1CCCN1C(=O)OCc1ccccc1)c1ccccc1` (stereo not drawn) (Cbz-Pro-[Phg]-OH; configuration not given here) was 14.6%.

With `Cc1c(C(=O)Nc2ccc3c(c2)CCC3)cccc1[N+](=O)[O-]`, the “hERG current change (%, negative = inhibition) at 1uM” value was 1.46%.

In the case of `O=C(CSCCO)Nc1cccc2ccccc12`, the “hERG current change (%, negative = inhibition) at 1uM” value is reported as 10.1%. To `CC(C)C[C@H]1COCCS(=O)(=O)N1Cc1cccc(F)c1` belongs 16.7%; to `CC(C)(C)C1CCC(OC(=O)C[N+]2(C)CCCC2)CC1.[I-]` (centres unmarked), 15%; to `Cc1nc2c(c(C)nn2-c2ccccc2)c(C)c1CCC(=O)NCCCOC(C)C`, -1.06%.

For `CN(CCC#N)C(=O)COc1ccc(Br)cc1Cl`, the “hERG current change (%, negative = inhibition) at 1uM” value was determined as 3.5%.

Turning to `COc1ccc(Br)cc1C(=O)Nc1cccc(NC(=O)c2ccco2)c1`, the “hERG current change (%, negative = inhibition) at 1uM” value was -1.61%. With `COc1ccc(-c2ccc(/C=N/N3C(=O)C4C5C=CC(C6CC56)C4C3=O)o2)c([N+](=O)[O-])c1` (centres unmarked), the “hERG current change (%, negative = inhibition) at 1uM” value is -2.46%.

For the compound `O=c1c2cnn(-c3ccccc3)c2ncn1Cc1cccnc1`, the “hERG current change (%, negative = inhibition) at 1uM” value was found to be 11.4%. To `Br.C1=C(c2ccco2)N2CCN=C2S1` belongs 11.3%.
